Laboratory results: PubChem BioAssay AID686979 (National Center for Advancing Translational Sciences (NCATS), 2013)
Hit rate of the full screen: of about 420,000 compounds, about 50,000 (12%) were called active. The inconclusive results got no clear call from the source; some entries with a clear call stand among them for comparison. Calls come from the whole dose curve; as a rule, active = well fitted inhibition curve with a large enough effect; inconclusive = small, poorly fitted or top-dose-only effect; inactive = flat fitted curve, though single readings scatter. Potencies of inconclusive entries are left out as doubtful fits.

experiment: qHTS for Inhibitors of human tyrosyl-DNA phosphodiesterase 1 (TDP1): qHTS in cells in presence of CPT; settings: chicken DT40 Tdp1-/-;hTDP1 cells + 20 nM CPT, ATP luminescence, 48 h; activity change, negative = growth inhibition: at 46.2 µM (top of the series) unless noted; note: nearly all actives have a fitted effect of over 55% in size
How it was run: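 Chicken DT40 Tdp1-/- cells stably complemented with human TDP1 were seeded at 400 cells/well in medium containing 20 nM camptothecin, exposed to pin-transferred compounds, and grown at 37 °C for at least 48 hr. Viability was read as ATP luminescence.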
% is set by controls: 0 for no effect and ±100 for the full control effect; potency is the fitted concentration of half-maximal effect; tags give direction and shape of the fitted curve.

Row | Compound | Potency | activity change, negative = growth inhibition
1 | Cc1ccccc1C(=O)N1CCN(c2ccc(NC(=O)Cc3ccccc3)cc2)CC1 | inconclusive [inhibitor, partial curve] | –
2 | CCN(c1cc(C)cc(C)c1)S(=O)(=O)c1nnc(NC(=O)c2ccco2)s1 | inconclusive [inhibitor, single point] | –
3 | Cc1cccc(C)c1NC(=O)C(c1cccc2ccccc12)n1c(=O)c(-c2cc3ccccc3[nH]2)nc2ccccc21 (configuration not stated) | active: 13 µM | –
4 | COCCn1c(SCC(=O)N2CCCC2)nc2c(c1=O)SCC2 | inactive | –
5 | c1ccc(Nc2c(-c3ccco3)nc3ccccn23)cc1 | inconclusive [inhibitor, single point] | –
6 | Cc1ccc(NC(=O)/C(=C/c2ccc([N+](=O)[O-])cc2)NC(=O)c2ccccc2)cc1 | inconclusive [inhibitor, single point] | –
7 | O=C(O)C1CCCN1C(=O)OCC1c2ccccc2-c2ccccc21 (configuration not stated) | inactive | –
8 | C[C@H]1OC(=O)CC[C@@H]2[C@]1(C)CCC1[C@@]2(C)CC[C@@]2(C)C3CC(C)(C)CC[C@]3(CO)CC[C@]12C (some centres not stated) | inconclusive [inhibitor, single point] | –
9 | COc1ccc2[nH]c3nc(SCc4nnc(-c5ccccc5)o4)nnc3c2c1 | inconclusive [inhibitor, single point] | –
10 | C/C(=C\c1ccco1)CN1CCN(Cc2ccc(C)o2)C(CCO)C1 (configuration not stated) | inactive | –
11 | O=C(Nc1ccnn1C1CCN(CCCC2CCCC2)CC1)c1ccccc1Cl | inconclusive [inhibitor, single point] | –
12 | CC(=O)OC1CCC2(C)C3=CCC4(C)C(C(C)=O)=CCC4C3CCC2C1 (configuration not stated) | inconclusive [inhibitor, single point] | –
13 | CN(C(=O)c1ccc(NC(=O)Cc2cccc(NC(=O)C3CCN(C(=O)CCc4ccccc4)CC3)c2)cc1)C1CCCC1 | inconclusive [inhibitor, single point] | –
14 | NC(=O)CCN(C(=O)c1cccc(S(=O)(=O)N2CCc3ccccc32)c1)c1ccccc1 | inconclusive [inhibitor, single point] | –
15 | Cc1ccc(C(=O)O/N=C(\N)c2ccccn2)cc1C | – | inconclusive: -33.9% [inhibitor]
16 | COc1ccc2[nH]cc(CCNC(=O)c3cnn(-c4ccccc4Cl)c3C3CCN(C(=O)OC(C)(C)C)CC3)c2c1 | active: 13 µM | –
17 | CCc1ccccc1NC(=O)Cc1ccc(-n2cccc2)cc1 | inconclusive [inhibitor, single point] | –
18 | COC(=O)CC1COc2ccccc2N1C(=O)/C=C/c1ccccc1 (configuration not stated) | inconclusive [inhibitor, single point] | –
19 | COc1ccc(-c2cc(C(=O)N3CCOCC3)no2)cc1 | inactive | –
20 | CCOC(=O)C1=CC[C@@H](c2ccccc2)N(S(=O)(=O)c2ccc(C)cc2)[C@H]1C#N | inconclusive [inhibitor, single point] | –
21 | CC(C)OCCCNc1nc(-c2ccccc2)nc2ccccc12 | inconclusive [inhibitor, single point] | –

Row | Compound | Potency | activity change, negative = growth inhibition
22 | Cc1cccc(N2CCN(C(=O)c3ccc(NC(=O)c4nsc5ccccc45)cc3)CC2)c1C | inconclusive [inhibitor, partial curve] | –
23 | O=S(=O)(/N=C(\Sc1ccc(Cl)cc1)c1ccccc1)c1ccccc1 | active: 11.6 µM | –
24 | Cc1cc2nc(-c3cccc(NC(=O)c4ccc(Br)o4)c3C)oc2cc1C | inconclusive [inhibitor, single point] | –
25 | CCOc1ccc(C(=O)Nc2ccc(-c3nc4ccccc4s3)c(C)c2)cc1OCC | inactive | –
26 | CCN(CC)c1ccc(S(=O)(=O)N2CCOCC2)cc1NC(=O)CSc1ccccc1 | active: 16.4 µM | –
27 | Cc1cccc(N2CCN(C(=O)c3ccc4c(c3)NC(=O)C(CSCc3cccc(F)c3)N4)CC2C)c1 (configuration not stated) | inconclusive [inhibitor, single point] | –
28 | O=C(CCCc1c[nH]c2ccccc12)Nc1ncccc1O | inactive | –
29 | Cc1csc2c(N3CCN(C(=S)Nc4ccc(C(F)(F)F)cc4)CC3)ncnc12 | inconclusive [inhibitor, single point] | –
30 | CN(CCOc1ccccc1Cl)Cc1ccccc1 | inconclusive [inhibitor, single point] | –
31 | O=C(C1CC(=O)N(c2ccc(F)cc2)C1)N1CCOCC1 (configuration not stated) | inactive | –
32 | COc1ccc(C2OC(CCc3ccccc3)CC3=C2C(=O)OC(C)(C)O3)cc1 (configuration not stated) | inconclusive [inhibitor, single point] | –
33 | Cc1ccc(CCNC(=O)c2ccc3c(c2)c(C)c(C)n3Cc2ccccc2)cc1 | active: 16.4 µM | –
34 | CCOc1ccc(N(CC(=O)N2CC=C(c3ccccc3)CC2)S(=O)(=O)c2c(C)noc2C)cc1 | inconclusive [inhibitor, single point] | –
35 | CC(C)(C)NC(=O)CN(C(=O)C1CSC(=O)C1)c1ccccc1F (configuration not stated) | inactive | –
36 | Cn1c(Sc2ccc(Br)cc2)c(C=O)c2ccccc21 | inconclusive [inhibitor, single point] | –
37 | CCN(C[C@H]1N[C@@](C)(C(=O)OC)[C@H]2C(=O)N(C)C(=O)[C@@H]12)S(=O)(=O)c1ccc(-c2ccccc2)cc1 | inconclusive [inhibitor, single point] | –
38 | CCOc1ccccc1C(=O)Nc1cc2c(cc1N1CCOCC1)n(C)c(=O)n2C | active: 14.6 µM | –
39 | CCCCCCCCCCCCN1[C@@H](CC(C)=O)c2cc(F)ccc2S1(=O)=O | inconclusive [inhibitor, single point] | –
40 | O=C(COC(=O)C1CCN(S(=O)(=O)c2cccc3cccnc23)CC1)c1ccc([N+](=O)[O-])cc1 | inconclusive [inhibitor, single point] | –
41 | COCCNC(=O)/C(C#N)=C/c1cccc(NC(=O)c2ccccc2Cl)c1 | inconclusive [inhibitor, single point] | –
42 | Cc1occc1C(=O)Nc1ccc2c(c1)OCCO2 | inconclusive [inhibitor, partial curve] | –
